Data: US10005836B2, “Antibody drug conjugates” (Novartis AG, priority 2014, dated 2018)

Tests used:
Human P-cadherin ECD = target: T1, Human P-cadherin ECD (Homo sapiens, UniProt P22223); assay: SPR (Biacore) affinity, antibody captured on Protein A; assay type: binding
T1 construct: 108-652-TAG; host or cells: Tn5 insect cells, baculovirus
Method: The affinity of various antibodies and antibody drug conjugates (in Ab-MCC-DM1 format) to P-cadherin and its species orthologues was determined using SPR technology using a Biacore® T100 instrument (GE Healthcare, Pittsburgh, Pa.) or a Biacore® 2000 instrument (GE Healthcare, Pittsburgh, Pa.) using CM5 sensor chips.
Briefly, HBS-P^+ (0.01 M HEPES, pH 7.4, 0.15 M NaCl, 0.05% Surfactant P20) supplemented with 2% Odyssey® blocking buffer (Li-Cor Biosciences, Lincoln, Nebr.) was used as the running buffer for all the experiments on the Biacore® T100 instrument. HBS-P (0.01 M HEPES, pH 7.4, 0.15 M NaCl, 0.005% Surfactant P20) supplemented with 2% Odyssey® blocking buffer was used as the running buffer for all the experiments on the Biacore® 2000 instrument. The immobilization level and analyte interactions were measured by response unit (RU). Pilot experiments were performed to test and confirm the feasibility of the immobilization of Protein A (GE Healthcare, Pittsburgh, Pa.) and the capture of the test antibodies.
For kinetic measurements, experiments were performed in which the antibodies were captured to the sensor chip surface via the immobilized Protein A and the ability of the P-cadherin proteins to bind in free solution was determined. Briefly, 28 μg/ml of Protein A at pH 4.5 was immobilized on a CM5 sensor chip through amine coupling at flow rate of 10 μl/minute on two flow cells to reach 2300-3300 RUs. 0.01-0.25 μg/ml of test antibodies was then injected at 5 μl/min for 3 minute. Captured levels of the antibodies were generally kept below 400 RUs. Subsequently, 6.25-100 nM of P-cadherin ECD was diluted in a 2-fold series and injected at a flow rate of 40 μl/min for 2-4 min over both reference and test flow cells. Table 11 of tested ECDs is listed below. Dissociation of the binding was followed for 5 min. After each injection cycle, the chip surface was regenerated with PBS/6 M Guanidine HCl, pH 7.4 at 100 μl/min for 45 seconds. […] Experiments that were ran on the Biacore® 2000 instrument were globally fitted with a simple 1:1 interaction model using Scrubber 2 ® software version 2.0b (BioLogic Software) to obtain estimates of on rate (ka), off-rate (kd) and affinity (KD)

[1] = tested on: HCC70 triple negative breast cancer xenograft; assay: HCC70 TNBC xenograft, ADC efficacy screening; assay type: in vivo, mouse; conditions: 7 mg/kg single IV, day 42
Method: A representative photo of P-cadherin immunostaining on HCC70 tumors is shown to visualize the staining pattern in this xenograft model (FIG. 11A). IHC was performed using a Ventana Discovery XT autostainer. Sections of formalin fixed, paraffin embedded tumors were deparaffinized, treated with the Ventana Cell Conditioning #1 (CCIS) antigen retrieval reagent and then incubated for 60 minutes at room temperature in the primary antibody [mouse monoclonal anti-human P-cad antibody from BD Transduction Lab (Cat#610228, Lot 09934)] at a concentration of 10 ug/ml. This was followed by incubation with a biotinylated goat anti-mouse (Jackson Laboratories, cat#115-066-072, Lot#63620) used at working concentration of 1:250 was performed. Detection was performed using DAB Map Kit (Ventana Medical, cat#760-124). A non-specific mouse IgG antibody (Vector Laboratories Cat#1-2000, Lot# V0610) was used as a control to ensure that staining observed with the P-cadherin antibody was specific.
The 7 mg/kg dose level was selected as it was expected to provide a window to discern difference among ADC candidates in this model. Doses were adjusted to individual mouse body weights. The IV dose volume was 8 ml/kg.

[2] = tested on: HCC70 breast cancer xenograft; assay: HCC70 xenograft, linker comparison MCC versus CX1-1; assay type: in vivo, mouse; conditions: 7 mg/kg single IV
Method: Doses were adjusted to individual mouse body weights. The IV dose volume was 8 ml/kg.

T1 sequence (P22223 108-652): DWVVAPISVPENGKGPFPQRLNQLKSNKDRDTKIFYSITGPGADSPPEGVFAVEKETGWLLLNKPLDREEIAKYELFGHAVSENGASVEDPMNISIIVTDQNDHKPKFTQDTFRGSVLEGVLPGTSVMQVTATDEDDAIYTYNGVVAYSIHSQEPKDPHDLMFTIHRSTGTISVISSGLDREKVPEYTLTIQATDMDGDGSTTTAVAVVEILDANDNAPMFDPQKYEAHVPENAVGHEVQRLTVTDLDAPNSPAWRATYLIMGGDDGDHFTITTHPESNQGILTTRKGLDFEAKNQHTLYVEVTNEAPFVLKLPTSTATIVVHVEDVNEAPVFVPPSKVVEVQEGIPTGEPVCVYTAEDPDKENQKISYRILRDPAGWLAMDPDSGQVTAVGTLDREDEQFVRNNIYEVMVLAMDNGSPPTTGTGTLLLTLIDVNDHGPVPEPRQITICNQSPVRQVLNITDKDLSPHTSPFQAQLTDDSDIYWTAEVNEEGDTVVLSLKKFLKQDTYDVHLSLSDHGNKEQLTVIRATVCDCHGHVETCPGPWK

B1: NEG0012: humanized anti-P-cadherin antibody, heavy chain SEQ ID NO:29, light chain SEQ ID NO:39 (antibody)
heavy: EVQLVQSGAEVKKPGESLKISCKVSGYTFTDHTIHWMRQMPGKGLEWMGYIYPRSGSINYNEKFKGQVTISADKSSSTAYLQWSSLKASDTAMYYCARRNLFLPMEYWGQGTLVTVSSASTKGPSVFPLAPSSKSTSGGTAALGCLVKDYFPEPVTVSWNSGALTSGVHTFPAVLQSSGLYSLSSVVTVPSSSLGTQTYICNVNHKPSNTKVDKRV[human IgG1 Fc not printed]
light: DIVMTQTPLSLPVTPGEPASISCRSSQSLLSSGDQKNYLTWYLQKPGQSPQLLIYWASTRESGVPDRFSGSGSGTDFTLKISRVEAEDVGVYYCQNDYRYPLTFGQGTKLEIKRTVAAPSVFIFPPSDEQLKSGTASVVCLLNNFYPREAKVQWKVDNALQSGNSQESVTEQDSKDSTYSLSSTLTLSKADYEKHKVYACEVTHQGLSSPVTKSFNRGEC
reaction with human P-cadherin (Human P-cadherin ECD): nanomolar level

B2: NEG0013: humanized anti-P-cadherin antibody, heavy chain SEQ ID NO:49, light chain SEQ ID NO:59 (antibody)
heavy: EVQLVQSGAEVKKPGESLKISCKVSGYTFTDHTIHWMRQMPGKGLEWMGYIYPRSGSINYNEKFKGQVTISADKSSSTAYLQWSSLKASDTAMYYCARRNLFLPMEYWGQGTLVTVSSASTKGPSVFPLAPSSKSTSGGTAALGCLVKDYFPEPVTVSWNSGALTSGVHTFPAVLQSSGLYSLSSVVTVPSSSLGTQTYICNVNHKPSNTKVDKRV[human IgG1 Fc not printed]
light: DIVMTQTPLSLPVTPGEPASISCRSSQSLLSSGNQKNYLTWYLQKPGQSPQLLIYWASTRESGVPDRFSGSGSGTDFTLKISRVEAEDVGVYYCQNDYSYPLTFGQGTKLEIKRTVAAPSVFIFPPSDEQLKSGTASVVCLLNNFYPREAKVQWKVDNALQSGNSQESVTEQDSKDSTYSLSSTLTLSKADYEKHKVYACEVTHQGLSSPVTKSFNRGEC
reaction with human P-cadherin (Human P-cadherin ECD): nanomolar level

B3: NEG0016: humanized anti-P-cadherin antibody, heavy chain SEQ ID NO:69, light chain SEQ ID NO:79 (antibody)
heavy: QIQLVQSGAEVKKPGSSVKVSCKVSGYTFTDHTLHWMRQAPGQGLEWMGYIYPRSGSTKYNENFRGRVTITADTSSSTAYMELSSLRSEDTAVYYCARRLLFLPLDYWGQGTLVTVSSASTKGPSVFPLAPSSKSTSGGTAALGCLVKDYFPEPVTVSWNSGALTSGVHTFPAVLQSSGLYSLSSVVTVPSSSLGTQTYICNVNHKPSNTKVDKRV[human IgG1 Fc not printed]
light: EIVMTQSPATLSLSPGERATLSCRSSQSLLSSGNQKSYLTWYQQKPGQAPRLLIYWASTRESGIPARFSGSGSGTDFTLTISSLQPEDFAVYYCQNDYSYPFTFGQGTKLEIKRTVAAPSVFIFPPSDEQLKSGTASVVCLLNNFYPREAKVQWKVDNALQSGNSQESVTEQDSKDSTYSLSSTLTLSKADYEKHKVYACEVTHQGLSSPVTKSFNRGEC
reaction with human P-cadherin (Human P-cadherin ECD): nanomolar level

B4: NEG0064: humanized anti-P-cadherin antibody, heavy chain SEQ ID NO:89, light chain SEQ ID NO:99 (antibody)
heavy: QIQLVQSGAEVKKPGSSVKVSCKVSGYTFTDHTLHWMRQAPGQGLEWMGYIYPRSGSTKYNENFRGRVTITADTSSSTAYMELSSLRSEDTAVYYCVRRLLFLPLDYWGQGTLVTVSSASTKGPSVFPLAPSSKSTSGGTAALGCLVKDYFPEPVTVSWNSGALTSGVHTFPAVLQSSGLYSLSSVVTVPSSSLGTQTYICNVNHKPSNTKVDKRV[human IgG1 Fc not printed]
light: EIVMTQSPATLSLSPGERATLSCRSSQSLLSSGNQKSYLTWYQQKPGQAPRLLIYWASTRESGIPARFSGSGSGTDFTLTISSLQPEDFAVYYCQNDYSYPFTFGQGTKLEIKRTVAAPSVFIFPPSDEQLKSGTASVVCLLNNFYPREAKVQWKVDNALQSGNSQESVTEQDSKDSTYSLSSTLTLSKADYEKHKVYACEVTHQGLSSPVTKSFNRGEC
reaction with human P-cadherin (Human P-cadherin ECD): nanomolar level

B5: NEG0067: humanized anti-P-cadherin antibody, heavy chain SEQ ID NO:109, light chain SEQ ID NO:119 (antibody)
heavy: QIQLVQSGAEVKKPGSSVKVSCKVSGYTFTDHTLHWMRQAPGQGLEWMGYIYPRSGSTKYNENFKGRVTITADTSSSTAYMELSSLRSEDTAVYYCVRRLLFLPLDYWGQGTLVTVSSASTKGPSVFPLAPSSKSTSGGTAALGCLVKDYFPEPVTVSWNSGALTSGVHTFPAVLQSSGLYSLSSVVTVPSSSLGTQTYICNVNHKPSNTKVDKRV[human IgG1 Fc not printed]
light: EIVMTQSPATLSLSPGERATLSCRSSQSLLSSGNQKSYLTWYQQKPGQAPRLLIYWASTRESGIPARFSGSGSGTDFTLTISSLQPEDFAVYYCQNDYSYPFTFGQGTKLEIKRTVAAPSVFIFPPSDEQLKSGTASVVCLLNNFYPREAKVQWKVDNALQSGNSQESVTEQDSKDSTYSLSSTLTLSKADYEKHKVYACEVTHQGLSSPVTKSFNRGEC
reaction with human P-cadherin (Human P-cadherin ECD): nanomolar level

B6: NEG0012-MCC-DM1 (conjugate)
heavy: EVQLVQSGAEVKKPGESLKISCKVSGYTFTDHTIHWMRQMPGKGLEWMGYIYPRSGSINYNEKFKGQVTISADKSSSTAYLQWSSLKASDTAMYYCARRNLFLPMEYWGQGTLVTVSSASTKGPSVFPLAPSSKSTSGGTAALGCLVKDYFPEPVTVSWNSGALTSGVHTFPAVLQSSGLYSLSSVVTVPSSSLGTQTYICNVNHKPSNTKVDKRV[human IgG1 Fc not printed]
light: DIVMTQTPLSLPVTPGEPASISCRSSQSLLSSGDQKNYLTWYLQKPGQSPQLLIYWASTRESGVPDRFSGSGSGTDFTLKISRVEAEDVGVYYCQNDYRYPLTFGQGTKLEIKRTVAAPSVFIFPPSDEQLKSGTASVVCLLNNFYPREAKVQWKVDNALQSGNSQESVTEQDSKDSTYSLSSTLTLSKADYEKHKVYACEVTHQGLSSPVTKSFNRGEC
mean tumor volume versus isotype-matched huIgG1-MCC-DM1 control group [1]: significantly different

B7: NEG0067-MCC-DM1 (conjugate)
heavy: QIQLVQSGAEVKKPGSSVKVSCKVSGYTFTDHTLHWMRQAPGQGLEWMGYIYPRSGSTKYNENFKGRVTITADTSSSTAYMELSSLRSEDTAVYYCVRRLLFLPLDYWGQGTLVTVSSASTKGPSVFPLAPSSKSTSGGTAALGCLVKDYFPEPVTVSWNSGALTSGVHTFPAVLQSSGLYSLSSVVTVPSSSLGTQTYICNVNHKPSNTKVDKRV[human IgG1 Fc not printed]
light: EIVMTQSPATLSLSPGERATLSCRSSQSLLSSGNQKSYLTWYQQKPGQAPRLLIYWASTRESGIPARFSGSGSGTDFTLTISSLQPEDFAVYYCQNDYSYPFTFGQGTKLEIKRTVAAPSVFIFPPSDEQLKSGTASVVCLLNNFYPREAKVQWKVDNALQSGNSQESVTEQDSKDSTYSLSSTLTLSKADYEKHKVYACEVTHQGLSSPVTKSFNRGEC
mean tumor volume versus linker-matched control IgG1 ADC group [2]: not statistically different
